Laboratory results as given in PubChem BioAssay (NCATS).
The shares of active, inactive and inconclusive entries below differ from those in the screen. For some assays here: No potency is given beside an inconclusive call; the fits are too rough. Calls of active or inactive are those of the source. Unless noted, calls follow the shape of the dose curve; as a rule, active = well fitted curve in the direction sought with a large enough effect; inconclusive = small, poorly fitted or top-dose-only effect, or another doubt; inactive = no such curve, though single readings can be large; an effect the other way counts as inactive or inconclusive.

Key:
[1] = Confirmatory qHTS for small molecule stabilizers of the endoplasmic reticulum resident proteome: Secreted ER Calcium Modulated Protein (SERCaMP) assay (AID 1508628); also: potency is read from the fitted curve at half-maximal effect; nearly all actives have a fitted effect of over 40% in size
Summary of the method: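 We seeded SH-SY5Y-GLuc-SERCaMP cells, added compounds (three concentrations in the primary run, eleven up to 76.6 uM in confirmation), incubated 16 h, depleted ER calcium with thapsigargin, and read luciferase 4 h later.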

[2] = Cell Viability qHTS for small molecule stabilizers of the endoplasmic reticulum resident proteome (AID 1508629); conditions: cell viability counter-screen, 100 nM thapsigargin for final 4 h;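 also: compound exposure about 46 h in total before the viability read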; also: potency is read from the fitted curve at half-maximal effect
[3] = Primary qHTS for small molecule stabilizers of the endoplasmic reticulum resident proteome: Secreted ER Calcium Modulated Protein (SERCaMP) assay (AID 1508630); conditions: SH-SY5Y GLuc-SERCaMP (Gaussia luciferase released on ER calcium loss) secretion, thapsigargin, luminescence; activity change, negative = inhibition: at 38.4 µM (top of the series); also: potency is read from the fitted curve at half-maximal effect
Summary of the method: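 GLuc-SERCaMP-expressing SH-SY5Y cells, pretreated 16 h with compound, are challenged with thapsigargin to empty ER calcium stores; after 4 h, coelenterazine is added directly to the medium and luminescence is imaged.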

[4] = NFAT Signaling Pathway (AID 444; active = well fitted curve in either direction with a large enough effect, not every such curve was filed as active; inconclusive = small, poorly fitted or top-dose-only effect, or another doubt;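 also: carbachol stimulus at about its EC50 of 1 µM final; % is scaled to controls: 0 for no effect and ±100 for the full control effect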); conditions: Jurkat NFAT-bla M1, carbachol, beta-lactamase ratio, 5 h; at 7.69 µM (top of the series) unless noted
Summary of the method: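 Jurkat cells carrying an NFAT-driven β-lactamase reporter and co-transfected muscarinic M1 receptor were treated with compound plus carbachol (1 uM final, an EC50 level) for 5 h at 37 °C. CCF4 loading followed for 1 h at RT; 460/530 nm ratio gave %activity.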

[5] = biological target: 3',5'-cyclic-AMP phosphodiesterase 4B (Homo sapiens) (UniProt Q07343); test: qHTS Assay for Inhibitors of PDE-IV (AID 607; active = well fitted activation curve with a large enough effect in the main read-out, with a control signal flat, not every such curve was filed as active; inconclusive = small, poorly fitted or top-dose-only effect, or effect the other way, or a change in a side signal; also: potency is read from the fitted curve at half-maximal effect; as to activation (PDE inhibition): % of control where 0% means no effect); conditions: HEK293 ACTOne CNG channel cells, membrane potential fluorescence; activation (PDE inhibition): at 22.9 µM (top of the series)
Summary of the method: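 Cell-based read-out of cAMP via a modified cyclic nucleotide-gated channel and membrane potential dye (535/590 nm) in HEK293 cells expressing PDE4 endogenously. Compounds tested up to 22.9 uM final; 100 uM RO 20-1724 reference.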

[6] = qHTS Assay for Identification of Small Molecule Antagonists for NFkB Signaling Pathway (AID 895; active = well fitted inhibition curve with a large enough effect in the signal ratio, with a control signal flat, not every such curve was filed as active; inconclusive = small, poorly fitted or top-dose-only effect, or effect the other way, or a change in a side signal; the % refers to the signal ratio; also: % is scaled to controls: 0 for no effect and ±100 for the full control effect); conditions: NFkB beta-lactamase reporter cells, FRET ratio 460/530; activity change, negative = inhibition: at 38.3 µM (top of the series) unless noted
Summary of the method: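 NFkB-bla ME-180 cervical carcinoma cells with beta-lactamase reporter under NFkB response element; compounds added, then TNF alpha at 10 pM final (EC50), 5 h at 37 C. LiveBLAzer substrate 2 h, room temperature; emission 460/530 nm at 405 nm excitation.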

[7] = qHTS Assay for Identification of Small Molecule Agonists for Thrombopoietin (TPO) Signaling Pathway (AID 917); also: potency is read from the fitted curve at half-maximal effect
Summary of the method: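 Murine Ba/F3 cells expressing human TPO receptor and GPIIb-promoter luciferase, IL-3-starved overnight, given compound plus TPO at 26 pM (EC50). After 24 h at 37 C, 5% CO2, luminescence read.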

[8] = biological target: Muscarinic acetylcholine receptor M1 (Rattus norvegicus) (UniProt P08482); test: qHTS Assay for Antagonists of Acetylcholine Muscarinic M1 Receptor: Kinetic Measurement of Intracellular Calcium Response (AID 943); also: potency is read from the fitted curve at half-maximal effect; nearly all actives have a fitted effect of over 75% in size
Summary of the method: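 CHO cells stably expressing rat M1 were loaded with no-wash Fluo-4 dye for 1 h at 37C, pre-incubated 10 min with compound, then challenged with EC80 carbachol (100 nM final); kinetic calcium read 4 min, peak/basal ratio.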

[9] = biological target: Ubiquitin carboxyl-terminal hydrolase 1 (Homo sapiens) (UniProt O94782); test: Inhibitors of USP1/UAF1: Pilot qHTS (AID 504865);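 also: rhodamine fluorescence freed from ubiquitin-rhodamine substrate followed over time; potency is read from the fitted curve at half-maximal effect; nearly all actives have a fitted effect of over 35% in size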
Summary of the method: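 USP1/UAF1 complex at 1 nM preincubated 15 min at room temperature with compound, then Ub-Rho substrate added at 150 nM final. Fluorescence (480/540 nm) read kinetically in 50 mM HEPES pH 7.8, 0.5 mM EDTA, 1 mM TCEP, 0.1 mg/ml BSA, 0.01% Tween-20.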

[10] = qHTS Assay for Lipid Storage Modulators (AID 1519; calls by dose curve; also: % is scaled to controls: 0 for no effect and ±100 for the full control effect); conditions: Drosophila S3 cells, BODIPY lipid droplet/cell ratio, laser cytometry, cells loaded with oleic acid; activity change, negative = inhibition: at 57.5 µM (top of the series) unless noted
Summary of the method: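 Cells seeded at 5,000 per well were treated with compounds over a concentration series and loaded with oleic acid (400 uM, as added). Lipid droplet fluorescence (488 nm excitation, 500-530 nm channel) was read by laser-scanning cytometry and normalized to 20 uM Triacsin C.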

[11] = biological target: Cytochrome P450 1A2 (Homo sapiens) (UniProt P05177); test: p450-cyp1a2 (AID 410; calls by dose curve;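 also: top concentration of the series differs between compounds; -100% = full effect of reference inhibitor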)
Summary of the method: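 Human CYP1A2 (20nM) demethylated Luciferin-ME at its Km (100uM) in 100mM KPO4. After 10 min compound preincubation, NADPH regeneration ran the reaction 60 min at room temperature. Luciferin was read by luminescence, normalized to 57 uM furafylline.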

[12] = biological target: Cytochrome P450 3A4 (Homo sapiens) (UniProt P08684); test: qHTS Assay for Inhibitors and Substrates of Cytochrome P450 3A4 (AID 884); also: potency is read from the fitted curve at half-maximal effect; nearly all actives have a fitted effect of over 50% in size
Summary of the method: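 20 nM human CYP3A4 with 25 uM Luciferin-PPXE (at KM) in 200 mM KPO4, preincubated 10 min with compound; NADPH regeneration started a 60 min RT reaction. Luciferin detected by luminescence, normalized to 57 uM ketoconazole as full inhibition.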

[13] = biological target: Cytochrome P450 2C19 (Homo sapiens) (UniProt P33261); test: qHTS Assay for Inhibitors and Substrates of Cytochrome P450 2C19 (AID 899); also: top concentration of the series differs between compounds; % is scaled to controls: 0 for no effect and ±100 for the full control effect; nearly all actives have a fitted effect of over 60% in size
Summary of the method: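 In 50mM KPO4, the reaction held 5nM enzyme and KM-level (10uM) Luciferin-H EGE; it ran 60 min at 37C after NADPH regeneration and a 10 min compound preincubation. Luminescence values were scaled to 57uM ketoconazole as complete inhibition.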

[14] = biological target: Endonuclease 4 (Escherichia coli (strain K12)) (UniProt P0A6C1); test: Counterscreen for APE1 Inhibitors: qHTS Validation Assay for Inhibitors of Endonuclease IV (AID 1708); also: % is scaled to controls: 0 for no effect and ±100 for the full control effect
Summary of the method: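 2 nM enzyme was preincubated with compounds for 15 min at room temperature in 50 mM Tris-HCl pH 7.5, 50 mM NaCl, 2 mM MgCl2, 1 mM DTT, 0.01% Tween-20. 50 nM THF-abasic TAMRA/BHQ-2 duplex substrate started the reaction.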

[15] = qHTS for differential inhibitors of proliferation of Plasmodium falciparum line D10 (AID 1877);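 also: potency is read from the fitted curve at half-maximal effect; parasites grown with compound for 72 h before DNA staining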
[16] = qHTS for differential inhibitors of proliferation of Plasmodium falciparum line Dd2 (AID 1882); conditions: Potency: Plasmodium falciparum Dd2 proliferation inhibition; also: potency is read from the fitted curve at half-maximal effect; nearly all actives have a fitted effect of over 65% in size
Summary of the method: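 SYBR Green I DNA fluorescence read-out, ex 485/em 535 nm. Signals were normalized to 0.29 uM artemisinin and DMSO wells, then corrected using vehicle-only plates flanking each stack. Parasite growth ran 72 h in erythrocytes before lysis.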

[17] = biological target: RecQ-like DNA helicase BLM (Homo sapiens) (UniProt P54132); test: qHTS Validation Assay for Inhibitors of Bloom's syndrome helicase (BLM) (AID 2364); also: potency is read from the fitted curve at half-maximal effect
Summary of the method: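 BLM 50 nM in 25 mM Tris-HCl pH 8.0, 5 mM NaCl, 2 mM MgCl2, 1 mM DTT, 0.01% Tween-20, 2.5 ug/ml poly(dI-dC); 15 min cpd preinc, RT. Start: 200 nM forked DNA + 2 mM ATP (final). TAMRA read, 2 reads 2 h apart.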

[18] = Quantitative high throughput screen for delayed death inhibitors of the malarial parasite plastid, 96 hour incubation (AID 488745); also: potency is read from the fitted curve at half-maximal effect; nearly all actives have a fitted effect of over 70% in size
Summary of the method: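 P. falciparum carrying an integrated firefly luciferase reporter, grown in erythrocytes (2% hematocrit, 0.1% parasitemia final) in RPMI 1640/0.5% Albumax, was exposed to compound for 96 h (two generations) at 37 C, 5% CO2. Luminescence decrease indicated growth inhibition.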

[19] = Quantitative high throughput screen for delayed death inhibitors of the malarial parasite plastid, 48 hour incubation (AID 488752); also: potency is read from the fitted curve at half-maximal effect; nearly all actives have a fitted effect of over 65% in size
Summary of the method: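 Erythrocytes infected with P. falciparum carrying an integrated firefly luciferase reporter (2% hematocrit, 0.1% parasitemia final) were exposed to compounds in RPMI 1640/0.5% Albumax for 48 h at 37 C, 5% CO2. Growth inhibition was scored as reduced luminescence.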
Tags tell the direction and shape of the fitted curve.

Sequence of UniProt Q07343 (Q07343 whole entry, looked up): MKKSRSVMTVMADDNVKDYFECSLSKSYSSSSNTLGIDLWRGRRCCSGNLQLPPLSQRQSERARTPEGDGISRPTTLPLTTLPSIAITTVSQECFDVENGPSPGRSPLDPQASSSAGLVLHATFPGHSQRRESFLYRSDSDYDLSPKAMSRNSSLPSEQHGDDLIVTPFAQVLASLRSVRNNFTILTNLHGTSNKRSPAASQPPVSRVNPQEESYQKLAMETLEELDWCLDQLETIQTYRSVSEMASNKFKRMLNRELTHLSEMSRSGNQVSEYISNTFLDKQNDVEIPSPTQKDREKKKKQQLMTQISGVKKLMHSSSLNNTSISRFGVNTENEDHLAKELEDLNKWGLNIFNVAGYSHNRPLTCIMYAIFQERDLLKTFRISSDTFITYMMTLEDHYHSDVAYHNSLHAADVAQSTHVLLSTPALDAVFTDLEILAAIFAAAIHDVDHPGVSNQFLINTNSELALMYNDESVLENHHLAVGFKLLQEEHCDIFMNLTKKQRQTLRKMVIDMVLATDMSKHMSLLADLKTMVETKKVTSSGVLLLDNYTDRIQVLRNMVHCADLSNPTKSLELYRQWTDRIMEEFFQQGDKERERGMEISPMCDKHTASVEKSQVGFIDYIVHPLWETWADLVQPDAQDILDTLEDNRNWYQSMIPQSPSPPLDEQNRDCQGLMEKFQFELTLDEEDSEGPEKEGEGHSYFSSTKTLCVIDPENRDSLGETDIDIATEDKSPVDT
Sequence of UniProt P05177 (P05177 whole entry, looked up): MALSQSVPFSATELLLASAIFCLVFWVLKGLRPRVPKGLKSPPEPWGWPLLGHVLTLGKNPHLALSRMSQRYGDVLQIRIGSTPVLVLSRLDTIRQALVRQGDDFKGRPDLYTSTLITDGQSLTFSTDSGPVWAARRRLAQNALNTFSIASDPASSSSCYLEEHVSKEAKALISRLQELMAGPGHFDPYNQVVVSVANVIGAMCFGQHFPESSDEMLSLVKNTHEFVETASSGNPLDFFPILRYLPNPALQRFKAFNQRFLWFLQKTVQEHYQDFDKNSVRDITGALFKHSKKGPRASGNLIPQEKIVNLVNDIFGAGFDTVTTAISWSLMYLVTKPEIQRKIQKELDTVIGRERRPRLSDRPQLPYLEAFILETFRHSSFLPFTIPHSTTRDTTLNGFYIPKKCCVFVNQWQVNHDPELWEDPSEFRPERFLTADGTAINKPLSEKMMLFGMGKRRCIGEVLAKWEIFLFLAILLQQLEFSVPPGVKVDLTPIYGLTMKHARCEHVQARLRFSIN
Sequence of UniProt O94782 (O94782 whole entry, looked up): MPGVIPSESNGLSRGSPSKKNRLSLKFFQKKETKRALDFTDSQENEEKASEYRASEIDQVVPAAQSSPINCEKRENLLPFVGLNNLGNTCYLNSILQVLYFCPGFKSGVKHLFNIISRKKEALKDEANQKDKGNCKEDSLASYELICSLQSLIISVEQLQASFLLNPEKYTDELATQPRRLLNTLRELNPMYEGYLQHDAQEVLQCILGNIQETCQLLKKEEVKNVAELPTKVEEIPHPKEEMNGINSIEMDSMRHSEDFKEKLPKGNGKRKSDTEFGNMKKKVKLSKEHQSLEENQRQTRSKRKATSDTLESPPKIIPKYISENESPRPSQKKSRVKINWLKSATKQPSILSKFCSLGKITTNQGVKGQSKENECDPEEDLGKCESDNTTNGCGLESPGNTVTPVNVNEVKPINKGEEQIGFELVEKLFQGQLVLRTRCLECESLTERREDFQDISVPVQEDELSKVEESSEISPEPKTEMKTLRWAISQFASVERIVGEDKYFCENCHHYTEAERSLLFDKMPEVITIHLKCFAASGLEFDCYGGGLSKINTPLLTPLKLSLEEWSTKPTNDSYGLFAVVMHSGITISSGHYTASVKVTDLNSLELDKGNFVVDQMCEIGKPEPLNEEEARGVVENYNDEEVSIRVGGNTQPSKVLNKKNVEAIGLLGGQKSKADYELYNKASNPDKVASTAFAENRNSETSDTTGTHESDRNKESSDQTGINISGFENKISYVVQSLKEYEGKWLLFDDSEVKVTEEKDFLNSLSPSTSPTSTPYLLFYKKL
Sequence of UniProt P54132 (P54132 whole entry, looked up): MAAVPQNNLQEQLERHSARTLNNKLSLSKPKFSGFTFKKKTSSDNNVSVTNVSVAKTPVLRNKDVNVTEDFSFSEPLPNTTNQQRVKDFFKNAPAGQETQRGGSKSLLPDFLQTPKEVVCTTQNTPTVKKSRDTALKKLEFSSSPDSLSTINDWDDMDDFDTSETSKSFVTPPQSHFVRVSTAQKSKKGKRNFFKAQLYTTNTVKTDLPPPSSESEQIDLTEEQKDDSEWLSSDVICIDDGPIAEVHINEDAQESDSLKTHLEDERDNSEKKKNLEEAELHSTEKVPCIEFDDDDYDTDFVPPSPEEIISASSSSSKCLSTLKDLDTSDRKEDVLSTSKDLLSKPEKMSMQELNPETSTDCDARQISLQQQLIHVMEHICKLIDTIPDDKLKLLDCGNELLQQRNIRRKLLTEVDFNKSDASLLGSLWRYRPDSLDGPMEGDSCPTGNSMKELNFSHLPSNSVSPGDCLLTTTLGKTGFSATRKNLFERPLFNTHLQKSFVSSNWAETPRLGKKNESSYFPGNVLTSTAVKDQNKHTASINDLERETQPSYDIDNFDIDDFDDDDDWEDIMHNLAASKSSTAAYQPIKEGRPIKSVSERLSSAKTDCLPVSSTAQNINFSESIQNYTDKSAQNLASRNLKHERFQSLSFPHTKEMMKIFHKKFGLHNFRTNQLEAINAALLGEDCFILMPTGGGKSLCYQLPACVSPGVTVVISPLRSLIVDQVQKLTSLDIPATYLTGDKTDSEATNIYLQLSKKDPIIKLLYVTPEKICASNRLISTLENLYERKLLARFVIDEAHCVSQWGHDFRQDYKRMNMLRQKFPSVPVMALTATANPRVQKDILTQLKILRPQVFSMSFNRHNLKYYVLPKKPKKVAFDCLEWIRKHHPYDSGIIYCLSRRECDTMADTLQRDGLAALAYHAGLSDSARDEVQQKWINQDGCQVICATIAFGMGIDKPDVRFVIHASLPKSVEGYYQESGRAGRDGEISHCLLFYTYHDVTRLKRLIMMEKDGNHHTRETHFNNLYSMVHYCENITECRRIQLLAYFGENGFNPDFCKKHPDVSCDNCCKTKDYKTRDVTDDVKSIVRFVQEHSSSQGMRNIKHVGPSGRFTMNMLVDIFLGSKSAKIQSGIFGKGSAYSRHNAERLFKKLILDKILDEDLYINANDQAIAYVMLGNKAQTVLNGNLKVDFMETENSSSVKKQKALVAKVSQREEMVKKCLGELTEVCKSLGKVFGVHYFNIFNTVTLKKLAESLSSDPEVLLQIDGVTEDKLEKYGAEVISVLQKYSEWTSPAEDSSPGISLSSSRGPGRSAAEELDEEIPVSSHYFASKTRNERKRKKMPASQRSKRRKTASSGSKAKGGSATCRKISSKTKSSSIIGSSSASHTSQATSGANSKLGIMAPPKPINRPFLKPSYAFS
Sequence of UniProt P33261 (P33261 whole entry, looked up): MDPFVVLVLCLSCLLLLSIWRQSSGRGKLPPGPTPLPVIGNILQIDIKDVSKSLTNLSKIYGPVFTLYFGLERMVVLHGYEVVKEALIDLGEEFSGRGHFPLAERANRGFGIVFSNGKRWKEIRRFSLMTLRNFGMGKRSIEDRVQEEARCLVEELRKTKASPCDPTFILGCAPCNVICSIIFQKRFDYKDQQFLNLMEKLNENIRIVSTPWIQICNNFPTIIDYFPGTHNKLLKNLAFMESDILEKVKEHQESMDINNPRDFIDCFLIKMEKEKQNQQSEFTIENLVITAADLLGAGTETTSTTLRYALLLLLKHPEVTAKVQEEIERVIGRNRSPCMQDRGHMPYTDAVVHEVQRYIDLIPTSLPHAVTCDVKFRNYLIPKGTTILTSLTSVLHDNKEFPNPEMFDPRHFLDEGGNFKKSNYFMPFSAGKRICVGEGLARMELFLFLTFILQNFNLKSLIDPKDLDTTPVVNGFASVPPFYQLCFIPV
Sequence of UniProt P08684 (P08684 whole entry, looked up): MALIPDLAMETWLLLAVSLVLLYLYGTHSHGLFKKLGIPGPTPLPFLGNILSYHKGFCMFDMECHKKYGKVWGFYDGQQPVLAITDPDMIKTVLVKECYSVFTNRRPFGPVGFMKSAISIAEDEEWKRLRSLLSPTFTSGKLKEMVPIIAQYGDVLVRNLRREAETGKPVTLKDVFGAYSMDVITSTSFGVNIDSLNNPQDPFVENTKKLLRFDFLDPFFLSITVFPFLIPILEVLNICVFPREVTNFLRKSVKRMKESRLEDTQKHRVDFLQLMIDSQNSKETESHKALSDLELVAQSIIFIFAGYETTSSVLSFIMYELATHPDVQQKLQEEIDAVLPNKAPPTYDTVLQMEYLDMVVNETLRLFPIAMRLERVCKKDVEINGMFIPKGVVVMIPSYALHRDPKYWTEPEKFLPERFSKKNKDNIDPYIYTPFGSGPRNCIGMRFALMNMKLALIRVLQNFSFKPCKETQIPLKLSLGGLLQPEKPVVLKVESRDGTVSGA
Sequence of UniProt P08482 (P08482 whole entry, looked up): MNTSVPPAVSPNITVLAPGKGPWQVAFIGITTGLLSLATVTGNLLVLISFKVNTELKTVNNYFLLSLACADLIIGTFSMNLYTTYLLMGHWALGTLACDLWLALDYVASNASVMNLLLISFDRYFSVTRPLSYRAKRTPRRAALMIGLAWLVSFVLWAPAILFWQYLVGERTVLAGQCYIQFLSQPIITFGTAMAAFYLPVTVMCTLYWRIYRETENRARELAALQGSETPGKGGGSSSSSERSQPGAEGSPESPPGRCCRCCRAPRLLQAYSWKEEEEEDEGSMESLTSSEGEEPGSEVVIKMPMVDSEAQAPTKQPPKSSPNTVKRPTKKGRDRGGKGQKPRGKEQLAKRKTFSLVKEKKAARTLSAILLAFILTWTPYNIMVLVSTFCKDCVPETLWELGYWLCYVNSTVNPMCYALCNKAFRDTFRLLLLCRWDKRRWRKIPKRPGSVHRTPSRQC

Cn1c2c(c3ccccc31)CCNCC2
Potency [1]: inconclusive [inhibitor, full curve] | max response [2]: inactive: 24.2% | Potency [3]: inconclusive [inhibitor, partial curve, poor fit]

c1ccc2sc(C3(N4CCCC4)CCCCC3)cc2c1
Potency [2]: inconclusive [rising, full curve] | Potency [3]: inconclusive [inhibitor, partial curve, poor fit]

Oc1ccc2c3c1O[C@H]1c4[nH]c5ccccc5c4C[C@]4(O)[C@H](C2)N(CC2CC2)CC[C@@]314
activity change, negative = inhibition [4]: inactive: 3.02% [at 38 µM] | Potency [5]: inconclusive [activator, partial curve] | Potency [6]: inactive | Potency [7]: inconclusive [inhibitor, single point] | Potency [8]: inconclusive [inhibitor, partial curve, poor fit] | Potency [9]: inconclusive [inhibitor, partial curve] | Potency [1]: inconclusive [inhibitor, full curve] | Potency [2]: inconclusive [rising, full curve, poor fit] | Potency [3]: inconclusive [inhibitor, partial curve, poor fit]

COc1ccccc1CN1CCCC2(CCN(C(=O)Oc3ccccc3)CC2)C1
activity change, negative = inhibition [4]: inconclusive: -70.9% [inhibitor] | activity change, negative = inhibition [10]: inconclusive: 5.54% | Potency [3]: inconclusive [inhibitor, single point]

N#Cc1cccc(NC(=O)N2CC[C@@]3(CCCN(C(=O)Oc4ccccc4)C3)C2)c1
Potency [11]: inactive | Potency [12]: inconclusive [inhibitor, partial curve] | Potency [13]: inactive | activity change, negative = inhibition [10]: inconclusive: 7.22% | Potency [3]: inactive

CCCCC/C=C\C/C=C\CCCCCCCC(=O)NCCO
Potency [3]: inconclusive [inhibitor, partial curve]

CN1C2CCC1CC(C(=O)OC(CO)c1ccccc1)C2 (configuration not stated)
Potency [3]: inconclusive [inhibitor, partial curve, poor fit]

Oc1ccc2c3c1O[C@H]1c4c(c5ccccc5n4Cc4ccccc4)C[C@@]4(O)C(C2)N(CC2CC2)CC[C@]314
Potency [3]: inconclusive [inhibitor, full curve, poor fit]

CC(O)C(C)OC(=O)[C@@H]1C[C@@H]2c3cccc4c3c(cn4C(C)C)C[C@H]2N(C)C1 (some centres not stated)
Potency [10]: inactive | Potency [14]: inactive | Potency [15]: inconclusive [inhibitor, partial curve, poor fit] | Potency [16]: inconclusive [inhibitor, single point] | Potency [17]: inconclusive [inhibitor, full curve] | Potency [18]: inconclusive [inhibitor, single point] | Potency [19]: inconclusive [inhibitor, single point] | Potency [3]: inactive

O[C@H]1[C@H](O)[C@@H](O)CN2CC[C@H](O)[C@H]12
Potency [3]: inconclusive [inhibitor, full curve, poor fit]

CC(C(=O)OC1CC2CCC(C1)N2C)c1ccc(Br)cc1 (configuration not stated)
Potency [3]: inconclusive [inhibitor, single point]

N#Cc1cccc(NC(=O)N2CCCC3(CCN(C(=O)Oc4ccccc4)CC3)C2)c1
activity change, negative = inhibition [4]: inconclusive: -54.1% [inhibitor] | activity change, negative = inhibition [10]: inconclusive: 7.72% | Potency [3]: inconclusive [inhibitor, single point]

O=C(Oc1ccccc1)N1CCC[C@@]2(CCN(Cc3nccs3)C2)C1
Potency [3]: inconclusive [inhibitor, single point]

C[C@H]1CC[C@@H]2N(C1)C[C@H]1[C@@H]3C[C@H]4[C@@H](CC(=O)[C@H]5C[C@@H](O)CC[C@@]54C)[C@@H]3CC[C@H]1[C@]2(C)O
Potency [3]: inactive

N[C@H](Cc1o[nH]c(=O)c1Cl)C(=O)O
Potency [3]: inconclusive [inhibitor, full curve, poor fit]

O=C(O)[C@@H]1Cc2[nH]cnc2C(c2cccnc2)N1 (some centres not stated)
Potency [3]: inactive

H-YPFVEPI-OH
activity change, negative = inhibition [3]: inactive: -11.8% [at 3.88 µM]

CN1CC[C@@]2(CCCN(C(=O)c3ccco3)C2)C1
Potency [11]: inactive | Potency [5]: inactive | Potency [10]: inactive | Potency [3]: inconclusive [inhibitor, full curve, poor fit]
